In the supplement of paper PMC3334620:
Whole data set: some 33,000 sequences, median “E-score (-0.5 to 0.5)” near -0.035, cut for the highest 2% near 0.35. Some of the results follow.

molecular target: T1, Pdr3 (UniProt P33200); assay: PBM E-score (8-mer binding enrichment) (E-score (-0.5 to 0.5)); higher = stronger / more preferred TF binding; most listed sequences are background and not binding sites; conditions: protein concentration: 200 nM; construct: GST-full length
T1 sequence: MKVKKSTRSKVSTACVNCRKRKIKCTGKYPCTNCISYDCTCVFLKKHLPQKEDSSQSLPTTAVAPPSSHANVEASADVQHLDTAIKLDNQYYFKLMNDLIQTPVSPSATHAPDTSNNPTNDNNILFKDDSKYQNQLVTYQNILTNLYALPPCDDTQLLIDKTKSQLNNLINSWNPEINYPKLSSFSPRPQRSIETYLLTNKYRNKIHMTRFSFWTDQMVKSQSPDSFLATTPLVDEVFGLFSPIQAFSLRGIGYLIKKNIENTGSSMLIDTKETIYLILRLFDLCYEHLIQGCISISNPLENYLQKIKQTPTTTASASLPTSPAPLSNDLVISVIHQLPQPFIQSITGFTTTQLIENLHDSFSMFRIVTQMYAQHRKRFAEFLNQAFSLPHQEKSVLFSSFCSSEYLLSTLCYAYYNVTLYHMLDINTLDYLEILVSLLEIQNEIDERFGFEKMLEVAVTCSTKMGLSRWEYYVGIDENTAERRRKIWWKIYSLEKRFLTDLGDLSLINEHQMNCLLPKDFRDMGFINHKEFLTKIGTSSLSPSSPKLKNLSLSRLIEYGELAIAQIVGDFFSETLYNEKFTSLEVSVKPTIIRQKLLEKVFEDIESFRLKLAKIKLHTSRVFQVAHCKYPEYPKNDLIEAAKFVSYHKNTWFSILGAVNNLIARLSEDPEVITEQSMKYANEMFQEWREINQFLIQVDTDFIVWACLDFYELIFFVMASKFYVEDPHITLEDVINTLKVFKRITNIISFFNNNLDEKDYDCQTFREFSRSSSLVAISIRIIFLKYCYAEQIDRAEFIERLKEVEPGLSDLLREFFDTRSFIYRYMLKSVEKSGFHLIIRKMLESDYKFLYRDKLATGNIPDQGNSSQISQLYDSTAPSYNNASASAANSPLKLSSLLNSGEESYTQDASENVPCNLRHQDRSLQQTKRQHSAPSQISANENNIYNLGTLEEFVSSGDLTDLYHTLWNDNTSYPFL
Procedure: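 Universal 'all 10-mer' protein binding microarrays (Agilent AMADID 015681) probed with GST-tagged S. cerevisiae TFs (full-length or DBD) made by in vitro transcription/translation (PURExpress), about 100-200 nM. Bound TF was detected with fluorescent anti-GST. Each ungapped 8-mer (which stands for itself and its reverse complement) is scored by the PBM enrichment score (E-score), a modified Wilcoxon-Mann-Whitney statistic from -0.5 to +0.5, computed with the Universal PBM Analysis Suite. Scale: above 0.35 generally sequence-specific binding.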

Row | Sequence | PBM E-score
1 | CCCCCCGG | 0.132
2 | GCCAATTA | -0.0574
3 | ACGTTTAG | -0.205
4 | CGTGTGTC | 0.051
5 | ATGCTTCG | 0.118
6 | ACAGGATC | -0.21
7 | CCCAATTA | -0.0104
8 | CCACATGA | -0.115
9 | GAAGTGAC | -0.126
10 | CGAAGGGC | 0.0348
11 | CTCACGTC | 0.00422
12 | CGGGACTA | 0.208
13 | GAAACGAA | 0.0452
14 | AAAATATG | 0.184
15 | GGCCTTAC | -0.00456
16 | CGGGCGGA | 0.383
17 | AAAGATAA | -0.0995
18 | CTTATCAC | -0.103
19 | GGATGCGA | -0.114
20 | AGGAAACT | -0.0843
21 | ACCCTATA | -0.214
22 | ATTCCATC | 0.163
23 | CTACAGGA | -0.206
24 | AAATGATC | 0.0429
25 | CGGGCTCC | 0.21

Row | Sequence | PBM E-score
26 | CAGGACCG | -0.0353
27 | ATCTGGTC | -0.051
28 | TGATGCAA | 0.0131
29 | GACAAACA | 0.0268
30 | TGCCGACA | 0.123
31 | CCATTGTA | 0.0567
32 | TACAAGCA | 0.0636
33 | AATGCACT | -0.123
34 | ACGTATAT | -0.138
35 | CCCGAAAC | 0.134
36 | ATGATAGC | 0.0662
37 | GAAAGTCA | 0.00875
38 | AAAGCCCA | 0.0889
39 | AAGAATTA | -0.0831
40 | ACCCGGAA | 0.456
41 | CTGAAGGC | -0.334
42 | TATTTAGA | -0.00689
43 | GTCTAGAA | -0.0614
44 | CATCCCCG | 0.354
45 | CAAAATTC | 0.234
46 | GCACCAGA | -0.12
47 | AGCCGCAA | 0.0204
48 | CCGCTTTC | 0.185
49 | ACAATAAT | 0.104
50 | CGACCTCG | 0.135

Row | Sequence | PBM E-score
51 | TCACGAGA | -0.177
52 | ACTGAAGC | -0.064
53 | CACTCCTG | -0.115
54 | GCGTTAGA | 0.00545
55 | AATTAACG | 0.0424
56 | ATTACCTC | -0.0445
57 | AACGCGAC | -0.0622
58 | ATGCAAAG | -0.0888
59 | GGGCTTCA | 0.0122
60 | ATAGTCAG | -0.177
61 | CAAACGCG | 0.0879
62 | AGTACGCG | 0.032
63 | GACTCGGC | 0.0537
64 | GCGTAATA | -0.0851
65 | TATCCCCA | 0.0301
66 | GAATAGTC | -0.00574
67 | GTTCAATA | -0.0115
68 | AAGATCCA | 0.0854
69 | CTTTCTTA | -0.11
70 | CTTCCGGA | 0.451
71 | GTAAACAA | -0.0232
72 | CGCCATCC | 0.0558
73 | ATGGGAAA | -0.0929
74 | CACTCCAA | -0.0406
75 | CAAAAGTC | -0.0529

Row | Sequence | PBM E-score
76 | ATAGCTCC | -0.198
77 | GCTATACA | -0.126
78 | ACCATAGT | 0.14
79 | GTGTCTTA | -0.183
80 | AATTTACA | -0.353
81 | AGTATACG | -0.127
82 | CCCCTTAC | -0.128
83 | CAATAGCA | -0.11
84 | ACTACGCC | -0.00804
85 | ATAACATC | -0.0859
86 | GCTTACGA | -0.292
87 | CGTCTCAA | 0.0219
88 | AAAGAAAA | -0.00648
89 | GTAATAGA | -0.0517
90 | ATTCTAAC | -0.187
91 | CCCTCCCA | 0.125
92 | AACAAGTA | -0.229
93 | AACCTCTG | -0.0897
94 | TGGCGCCA | 0.154
95 | ACTGGGTC | -0.203
96 | GGAAAGAA | 0.222
97 | ATGGTATA | -0.0858
98 | TGCGCCAA | 0.053
99 | CGGGGTCA | 0.132
100 | CCTGGGAC | -0.266

Row | Sequence | PBM E-score
101 | ATATAAAC | -0.0835
102 | CGCACGGC | 0.142
103 | AGTCGGCC | 0.13
104 | GGGTTTAA | -0.0139
105 | GTTGCGAA | -0.0664
106 | TCGGGCAA | 0.0636
107 | AGACAGCG | -0.199
108 | GTCGGTAA | 0.0395
109 | ACATTCAG | -0.133
110 | AGCCAGTA | 0.041
111 | AAATAAAA | -0.0324
112 | TAGATATA | 0.128
113 | GAGGAATC | 0.0228
114 | AATACAAC | 0.0861
115 | AATAACCA | -0.185
116 | CTTACCAC | -0.138
117 | ATGATTAC | -0.0869
118 | AGCTCCTC | -0.195
119 | CCGTGCCC | 0.148
120 | AAACGAGT | 0.0128
121 | AACGATGC | -0.199
122 | AGTTTCAA | -0.0893
123 | CTCAATGC | -0.133
124 | ATGTTGAA | 0.0485
125 | CGACTTGC | -0.089

Row | Sequence | PBM E-score
126 | TACAGCTA | -0.249
127 | CGTGAAAC | -0.0489
128 | ACAATGAT | -0.0614
129 | GTGAGGAA | -0.0729
130 | ACGCAAAT | 0.0221
131 | TCCACGAA | -0.0449
132 | GACATTAA | -0.00233
133 | CCCCACGA | -0.0538
134 | CATGAGGA | -0.0207
135 | GCGTCGTA | 0.0914
136 | CCTGCAGA | -0.0209
137 | AACCGCCC | 0.0936
138 | CACAATGC | 0.0401
139 | GTTTGTAA | -0.0823
140 | CCCAGATC | -0.145
141 | ACATTCTG | -0.243
142 | CAAGAGTC | -0.209
143 | GCATAACC | 0.0518
144 | ATACCCGG | 0.339
145 | ATGGAAAC | 0.00355
146 | CACTGGGG | -0.123
147 | CAGACAAA | -0.0282
148 | GACTGCCC | -0.0371
149 | GATGGAGC | -0.0831
150 | AAGGCTAA | -0.151

Row | Sequence | PBM E-score
151 | GAAAGCAC | -0.0195
152 | ATGAATCG | -0.0795
153 | GCAGTGGA | -0.147
154 | ACACTTAG | -0.0111
155 | AGCGGGAC | 0.185
156 | GATTACGA | 0.00113
157 | AAAGCGTT | -0.117
158 | CCCGTAGG | -0.111
159 | CGAGTTAG | -0.128
160 | GACAGGGA | -0.115
161 | CGCTCCCA | 0.0353
162 | CCTAACTA | -0.0709
163 | CTACACAA | 0.0338
164 | GGCACCCA | 0.00772
165 | ATAGCCGG | 0.283
166 | CCTCCATA | -0.253
167 | CGAAGACA | -0.0157
168 | AGGCACTG | -0.027
169 | CCTGCAAG | -0.195
170 | TGACGGAA | 0.445
171 | AGAGCCCT | -0.197
172 | AACGCGCT | 0.0299
